Experimental data published in patent US20210324028A1 (Pfizer, published 2021).

T1: mouse PD-1 on doxycycline-induced 32D[pRF770+pRF791] cells (mouse, UniProt Q02242 25-288)
T1 sequence (looked up): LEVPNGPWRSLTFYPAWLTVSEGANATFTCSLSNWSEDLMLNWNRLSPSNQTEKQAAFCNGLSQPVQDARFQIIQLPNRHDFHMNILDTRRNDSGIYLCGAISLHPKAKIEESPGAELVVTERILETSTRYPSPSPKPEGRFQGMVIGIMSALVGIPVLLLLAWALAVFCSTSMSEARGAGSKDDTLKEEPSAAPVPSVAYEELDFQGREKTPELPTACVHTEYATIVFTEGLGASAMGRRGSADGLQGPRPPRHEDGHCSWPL

T2: IL-15 signaling receptor on 32D[pRF770+pRF791] cells (human CD122 plus mouse CD132) (human; mouse, UniProt P14784 27-551; P34902 23-369)
T2 sequence (looked up) 1: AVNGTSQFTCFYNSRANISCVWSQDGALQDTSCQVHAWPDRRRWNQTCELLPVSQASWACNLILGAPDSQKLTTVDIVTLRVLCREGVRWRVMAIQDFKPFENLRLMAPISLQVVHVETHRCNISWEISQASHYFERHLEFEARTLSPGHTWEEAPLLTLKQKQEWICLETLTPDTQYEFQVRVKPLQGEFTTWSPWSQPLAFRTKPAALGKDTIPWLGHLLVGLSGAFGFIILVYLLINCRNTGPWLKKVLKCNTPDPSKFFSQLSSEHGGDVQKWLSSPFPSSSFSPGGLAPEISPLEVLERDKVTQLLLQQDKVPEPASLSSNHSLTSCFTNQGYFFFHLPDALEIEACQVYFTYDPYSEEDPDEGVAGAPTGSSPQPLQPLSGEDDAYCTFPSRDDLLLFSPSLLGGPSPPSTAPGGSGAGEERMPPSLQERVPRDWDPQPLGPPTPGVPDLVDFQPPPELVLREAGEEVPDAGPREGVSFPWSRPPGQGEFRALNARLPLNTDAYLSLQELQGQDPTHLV
T2 sequence (looked up) 2: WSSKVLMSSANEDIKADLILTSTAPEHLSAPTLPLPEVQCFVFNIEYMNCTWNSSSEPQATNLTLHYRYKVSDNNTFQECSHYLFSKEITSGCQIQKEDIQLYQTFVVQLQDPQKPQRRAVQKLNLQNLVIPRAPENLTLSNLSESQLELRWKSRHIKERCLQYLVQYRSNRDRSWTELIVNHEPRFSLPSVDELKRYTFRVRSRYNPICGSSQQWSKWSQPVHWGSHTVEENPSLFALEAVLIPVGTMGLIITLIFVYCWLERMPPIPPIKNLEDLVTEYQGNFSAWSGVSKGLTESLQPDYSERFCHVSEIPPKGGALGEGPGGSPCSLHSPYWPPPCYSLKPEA

T3: human IL-2Rβ (human, UniProt P14784 27-240, limits assumed)
T3 construct: also called hIL-2Rβ; IL-2 receptor beta
T3 sequence (looked up): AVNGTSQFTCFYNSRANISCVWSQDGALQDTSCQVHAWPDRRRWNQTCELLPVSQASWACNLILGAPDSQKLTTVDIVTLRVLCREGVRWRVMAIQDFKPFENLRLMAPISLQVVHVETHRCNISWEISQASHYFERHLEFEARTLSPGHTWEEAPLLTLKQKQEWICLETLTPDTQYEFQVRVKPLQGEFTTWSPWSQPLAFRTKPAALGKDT


Key:
[1] = molecular target: T1, mouse PD-1 on doxycycline-induced …; assay: cell-based or functional assay
[2] = molecular target: T2, IL-15 signaling receptor on …; assay: cell-based or functional assay
human IL-2Rβ = molecular target: T3, human IL-2Rβ; assay: SPR, steady state, fusion captured
Procedure: (§1) Anti-human Fc sensor chips were prepared at 25° C. with a running buffer of 10 mM HEPES, 150 mM NaCl, 0.05% (v/v) Tween-20, pH 7.4. All surfaces of a Biacore CM4 sensor chip were activated with a 1:1 (v/v) mixture of 400 mM EDC and 100 mM NHS for 7 minutes, at a flow rate of 10 μL/min. An anti-human Fc reagent (Goat anti-human IgG Fc-γ specific, SouthernBiotech, Birmingham, Ala., Catalog #2014-01) was diluted to 50 μg/mL in 10 mM sodium acetate (pH 4.5) and injected on all flow cells for 7 minutes at 20 μL/min. All flow cells were blocked with 100 mM ethylenediamine in 200 mM Borate buffer pH 8.5 for 7 minutes at 10 μL/min.
(§2) All protein interaction experiments were performed at 37° C. using a running buffer of 10 mM HEPES, 150 mM NaCl, 0.05% (v/v) Tween-20, pH 7.4, 1 mg/mL BSA. Anti-PD-1-hIL-15 fusion proteins were captured at 10 μg/mL at a flow rate of 10 μL/min for 2 minutes. Different fusion proteins were captured in flow cells 2, 3 and 4. No protein was captured onto flow cell 1 which was used as a reference surface. […] After each analyte injection, dissociation was monitored for 5 minutes followed by regeneration of all flow cells with three 60-second injections of 75 mM phosphoric acid. […] For kinetic analysis, the double-referenced sensorgrams were fit globally to a simple 1:1 Langmuir with mass transport binding model using Biacore T200 Evaluation Software version 2.0. For steady-state affinity analysis, the double-referenced equilibrium binding responses were fit with a 1:1 Langmuir steady-state model using Biacore T200 Evaluation Software version 2.0.

human IL-15Rα = molecular target: T4, human IL-15Rα (human, UniProt Q13261 31-205, limits assumed); assay: SPR 37C, fusion captured by anti-human Fc
human IL-15Rα, sequence (Q13261 31-205 limits assumed): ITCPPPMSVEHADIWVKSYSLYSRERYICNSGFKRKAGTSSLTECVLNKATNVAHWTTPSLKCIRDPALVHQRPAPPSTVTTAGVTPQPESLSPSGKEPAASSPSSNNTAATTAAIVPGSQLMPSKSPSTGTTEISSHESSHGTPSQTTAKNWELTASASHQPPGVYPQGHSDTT
T4 construct: also called hIL-15Rα; IL-15 receptor alpha
Procedure: as §1, §2

[3] = molecular target: T1, mouse PD-1 on doxycycline-induced …; assay: cell-based or functional assay; remark: listed apart in the source
[4] = molecular target: T2, IL-15 signaling receptor on …; assay: cell-based or functional assay; remark: listed apart in the source

| Fold change = EC50 (PD-1(low))/EC50 (PD-1+) [1] | pSTAT5 EC50 on PD-1+ 32D reporter cells [1] | pSTAT5 EC50 on PD-1(low) 32D reporter cells [2] | Kd (human IL-2Rβ) | binding result (human IL-15Rα) | Fold change = EC50 (PD-1(low))/EC50 (PD-1+) [3] | pSTAT5 EC50 on PD-1+ 32D reporter cells [3] | pSTAT5 EC50 on PD-1(low) 32D reporter cells [4] | Binder |
| --- | --- | --- | --- | --- | --- | --- | --- | --- |
| 360 fold | 69 pM | 24.9 nM | 271 nM | no binding (tested: 3000 nM) |  |  |  | xmPD-1-hIL15Rasu-hIL15(E64Q/D30N) (other, not restated for this mutant) heavy 1: HHHHHHHHGGGGSGSGGEVQLVESGGGLVKPGGSLELSCAASGFTFSSYWMSWVRQAPEKGLEWVAAISPSGGSTYYADSVKGRFTISRDNAKNTLFLQMTSLRSEDTAMYYCAKESWGAYYDLWGQGTTVTVSSASTKGPSVFPLAPCSRSTSESTAALGCLVKDYFPEPVTVSWNSGALTSGVHTFPAVLQSSGLYSLSSVVTVPSSNFGTQTYTCNVDHKPSNTKVDKTVERKCRVRCPRCPAPPVAGPSVFLFPPKPKDTLMISRTPEVTCVVVAVSHEDPEVQFNWYVDGVEVHNAKTKPREEQFNSTFRVVSVLTVVHQDWLNGKEYKCKVSNKGLPSSIEKTISKTKGQPREPQVYTLPPSREEMTKNQVSLTCLVKGFYPSDIAVEWESNGQPENNYKTTPPMLDSDGSFFLYSRLTVDKSRWQQGNVFSCSVMHEALHNHYTQKSLSLSPGK heavy 2: EVQLVESGGGLVKPGGSLELSCAASGFTFSSYWMSWVRQAPEKGLEWVAAISPSGGSTYYADSVKGRFTISRDNAKNTLFLQMTSLRSEDTAMYYCAKESWGAYYDLWGQGTTVTVSSASTKGPSVFPLAPCSRSTSESTAALGCLVKDYFPEPVTVSWNSGALTSGVHTFPAVLQSSGLYSLSSVVTVPSSNFGTQTYTCNVDHKPSNTKVDKTVERKCEVECPECPAPPVAGPSVFLFPPKPKDTLMISRTPEVTCVVVAVSHEDPEVQFNWYVDGVEVHNAKTKPREEQFNSTFRVVSVLTVVHQDWLNGKEYKCKVSNKGLPSSIEKTISKTKGQPREPQVYTLPPSREEMTKNQVSLTCEVKGFYPSDIAVEWESNGQPENNYKTTPPMLDSDGSFFLYSKLTVDKSRWQQGNVFSCSVMHEALHNHYTQKSLSLSPGSGGGGGTSATATPGAITCPPPMSVEHADIWVKSYSLYSRERYICNSGFKRKAGTSSLTECVLNKATNVAHWTTPSLKCIRDPALVHQRPAPPSGGSGGGGSGGGSGGGGSGG[about 120 residues with changes left out here] light: DIVMTQSPSSLSVSAGDKVTMSCRASQGISSWLAWYQQKPWQPPKLLIYKASTLESGVPDRFTGSGSGTDFTLTISSVQAEDLAVYYCQQSYSTPWTFGGGTKLEIKGTVAAPSVFIFPPSDEQLKSGTASVVCLLNNFYPREAKVQWKVDNALQSGNSQESVTEQDSKDSTYSLSSTLTLSKADYEKHKVYACEVTHQGLSSPVTKSFNRGEC |
|  |  |  | 560 nM | no binding (tested: 3000 nM) | 455 fold | 2.94 pM | 1.33 nM | xmPD-1-hIL15 V49R/E46Q (other, not restated for this mutant; also called xmPD1-IL15 V49R/E46Q) heavy 1: HHHHHHHHGGGGSGSGGEVQLVESGGGLVKPGGSLELSCAASGFTFSSYWMSWVRQAPEKGLEWVAAISPSGGSTYYADSVKGRFTISRDNAKNTLFLQMTSLRSEDTAMYYCAKESWGAYYDLWGQGTTVTVSSASTKGPSVFPLAPCSRSTSESTAALGCLVKDYFPEPVTVSWNSGALTSGVHTFPAVLQSSGLYSLSSVVTVPSSNFGTQTYTCNVDHKPSNTKVDKTVERKCRVRCPRCPAPPVAGPSVFLFPPKPKDTLMISRTPEVTCVVVAVSHEDPEVQFNWYVDGVEVHNAKTKPREEQFNSTFRVVSVLTVVHQDWLNGKEYKCKVSNKGLPSSIEKTISKTKGQPREPQVYTLPPSREEMTKNQVSLTCLVKGFYPSDIAVEWESNGQPENNYKTTPPMLDSDGSFFLYSRLTVDKSRWQQGNVFSCSVMHEALHNHYTQKSLSLSPGK heavy 2: EVQLVESGGGLVKPGGSLELSCAASGFTFSSYWMSWVRQAPEKGLEWVAAISPSGGSTYYADSVKGRFTISRDNAKNTLFLQMTSLRSEDTAMYYCAKESWGAYYDLWGQGTTVTVSSASTKGPSVFPLAPCSRSTSESTAALGCLVKDYFPEPVTVSWNSGALTSGVHTFPAVLQSSGLYSLSSVVTVPSSNFGTQTYTCNVDHKPSNTKVDKTVERKCEVECPECPAPPVAGPSVFLFPPKPKDTLMISRTPEVTCVVVAVSHEDPEVQFNWYVDGVEVHNAKTKPREEQFNSTFRVVSVLTVVHQDWLNGKEYKCKVSNKGLPSSIEKTISKTKGQPREPQVYTLPPSREEMTKNQVSLTCEVKGFYPSDIAVEWESNGQPENNYKTTPPMLDSDGSFFLYSKLTVDKSRWQQGNVFSCSVMHEALHNHYTQKSLSLSPGSGGGGGTSATATPGA[about 120 residues with changes left out here] light: DIVMTQSPSSLSVSAGDKVTMSCRASQGISSWLAWYQQKPWQPPKLLIYKASTLESGVPDRFTGSGSGTDFTLTISSVQAEDLAVYYCQQSYSTPWTFGGGTKLEIKGTVAAPSVFIFPPSDEQLKSGTASVVCLLNNFYPREAKVQWKVDNALQSGNSQESVTEQDSKDSTYSLSSTLTLSKADYEKHKVYACEVTHQGLSSPVTKSFNRGEC |

Like-named read-outs stand apart in the source and are kept apart here.
